Assay results from the RNAGym collection of RNA variant scans (doi:10.1073/pnas.2313332121).
Variants at the background level are over-represented here.

B1: TPR 5TU (parent)
chain: GGAUCUUCUCGAUCUAACAAAAAAGACAAAUCUGCCACAAAGCUUGAGAGCAUCUUCGGAUGCAGAGGCGGCAGCCUUCGGUGGCGCGAUAGCGCCAACGUUCUCAACUAUGACACGCAAAACGCGUGCUCCGUUGAAUGGAGUUUAUCAUG

Variants of: B1
Experiment: polymerase ribozyme fitness, log enrichment relative to wild type (log ratio); higher = more active; in vitro selection for triplet polymerase activity
How it was run: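 For each subunit of a heterodimeric triplet polymerase ribozyme, a mutant library was built by PCR and transcribed, then taken through a single in vitro selection round in triplicate. Selection involved annealing to a biotinylated primer, the partner subunit and triplets, incubation frozen at −7 °C, gel excision of extended constructs, capture on streptavidin beads and RT-PCR. Genotypes were retained after Illumina sequencing of inputs and outputs only with ≥10 input reads and ≥1 read in each output. Fitness is defined as the logarithm of a genotype's enrichment relative to wild-type enrichment, using inverse-variance-weighted averages across replicates, with the logarithm taken to base 2.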
In the case of U7C C14G A17U U45A G86U A91U G124U U139A, the “polymerase ribozyme fitness (log ratio)” value is reported as ≤ -4.2.
In the case of U7C C14G G58C C85A U102G C116G A119G, the “polymerase ribozyme fitness (log ratio)” value is reported as ≤ -4.2.
For U7C C18G G25C G50A U53G C95G G140U U151C, the “polymerase ribozyme fitness (log ratio)” value was ≤ -4.2.
With U7C C27G A39C A41U G42U G81C C87U C96G A98U U148A C149G the “polymerase ribozyme fitness (log ratio)” value was ≤ -4.2.
For U7C C27G C96U, the “polymerase ribozyme fitness (log ratio)” value was ≤ -4.2.
With U7C C27U A39G C54U U55A G74U C85U C149G the “polymerase ribozyme fitness (log ratio)” value was ≤ -4.2.
With U7C C27U A49C A52G C79A C87G C93G C96A A97U C99U C108U A120U the “polymerase ribozyme fitness (log ratio)” value was -4.18.
In the case of U7C C27U C38A C96U G117A U135A, the “polymerase ribozyme fitness (log ratio)” value is reported as ≤ -4.2.
For U7C C35U U127G, the “polymerase ribozyme fitness (log ratio)” value was -3.61.
With U7C C38A C51G G83U G84A the “polymerase ribozyme fitness (log ratio)” value was ≤ -4.2.
For U7C C38U C95A A119U, the “polymerase ribozyme fitness (log ratio)” value was -2.61.
With U7C C54A G81C A97U A110U the “polymerase ribozyme fitness (log ratio)” value was ≤ -4.2.
With U7C C63A A66G C93U C95U G133C the “polymerase ribozyme fitness (log ratio)” value was ≤ -4.2.
With U7C C79U G80U G94U A119C A147U the “polymerase ribozyme fitness (log ratio)” value was ≤ -4.2.
With U7C C85U U101G C108A the “polymerase ribozyme fitness (log ratio)” value was ≤ -4.2.
In the case of U7C C85U U145A, the “polymerase ribozyme fitness (log ratio)” value is reported as -2.42.
For U7C C114U C149G, the “polymerase ribozyme fitness (log ratio)” value was ≤ -4.2.
In the case of U7C G11A U90A, the “polymerase ribozyme fitness (log ratio)” value is reported as ≤ -4.2.
For U7C G25C C27U G50C A66U C87U, the “polymerase ribozyme fitness (log ratio)” value was ≤ -4.2.
With U7C G25C G50U U56A G67A C87U G92A C93G G143A the “polymerase ribozyme fitness (log ratio)” value was ≤ -4.2.
In the case of U7C G25U U31C G62C C75U G117U A122G, the “polymerase ribozyme fitness (log ratio)” value is reported as ≤ -4.2.
In the case of U7C G42A U44A A52C U53G U82G G86U A98C C132G, the “polymerase ribozyme fitness (log ratio)” value is reported as ≤ -4.2.
With U7C G42U C43G U77G C85U C103A G141A C149A the “polymerase ribozyme fitness (log ratio)” value was ≤ -4.2.
With U7C G46A G65U C76A U77G C79A G94A C96A U135A U144G G152U the “polymerase ribozyme fitness (log ratio)” value was ≤ -4.2.
With U7C G50A A66G the “polymerase ribozyme fitness (log ratio)” value was ≤ -4.2.
In the case of U7C G68C G71A A106G, the “polymerase ribozyme fitness (log ratio)” value is reported as ≤ -4.2.
With U7C G68U A73G U82A G92A U101C C116A A137C the “polymerase ribozyme fitness (log ratio)” value was ≤ -4.2.
With U7C G81A C93G U148G the “polymerase ribozyme fitness (log ratio)” value was ≤ -4.2.
With U7C G92C the “polymerase ribozyme fitness (log ratio)” value was -2.73.
With U7C U9C A20U C75G C93U A106C C114A the “polymerase ribozyme fitness (log ratio)” value was ≤ -4.2.
With U7C U15A C18U A28C G83A G84A C114A the “polymerase ribozyme fitness (log ratio)” value was ≤ -4.2.
In the case of U7C U15A C36A A40C G94C C123A A150G, the “polymerase ribozyme fitness (log ratio)” value is reported as ≤ -4.2.
In the case of U7C U31C A39G G42C G92A G141U, the “polymerase ribozyme fitness (log ratio)” value is reported as ≤ -4.2.
For U7C U31G A47U G71C C95U U127G, the “polymerase ribozyme fitness (log ratio)” value was ≤ -4.2.
In the case of U7C U44A C93U C99U C123U G136C G141C, the “polymerase ribozyme fitness (log ratio)” value is reported as ≤ -4.2.
In the case of U7C U45G G81C U130G U148C, the “polymerase ribozyme fitness (log ratio)” value is reported as ≤ -4.2.
For U7C U45G G83C G128U C132G A147C, the “polymerase ribozyme fitness (log ratio)” value was ≤ -4.2.
With U7C U56C G68C G92C C132A the “polymerase ribozyme fitness (log ratio)” value was ≤ -4.2.
With U7C U148G the “polymerase ribozyme fitness (log ratio)” value was ≤ -4.2.
For U7G A12C C51G A64C C123U C132G, the “polymerase ribozyme fitness (log ratio)” value was ≤ -4.2.
For U7G A16U A19U G48C G50C C87A G128C U146C, the “polymerase ribozyme fitness (log ratio)” value was ≤ -4.2.
With U7G A17C A30C G48A A66C A91G C114G the “polymerase ribozyme fitness (log ratio)” value was ≤ -4.2.
For U7G A17C C75U G81A C85A C95G A98U, the “polymerase ribozyme fitness (log ratio)” value was ≤ -4.2.
In the case of U7G A17G A22G C54A C87U U130C, the “polymerase ribozyme fitness (log ratio)” value is reported as ≤ -4.2.
For U7G A19C A40G U56A A120G A150C, the “polymerase ribozyme fitness (log ratio)” value was ≤ -4.2.
With U7G A20C U56A C72G A73G C85U C93G A98G A115U the “polymerase ribozyme fitness (log ratio)” value was ≤ -4.2.
With U7G A20U A39C C93A G100A G126A U127G C149U the “polymerase ribozyme fitness (log ratio)” value was ≤ -4.2.
In the case of U7G A21C C35A A47C C99A C123A, the “polymerase ribozyme fitness (log ratio)” value is reported as ≤ -4.2.
For U7G A21C C36U C54U C79G G83A U144A, the “polymerase ribozyme fitness (log ratio)” value was ≤ -4.2.
For U7G A21G C57G U127G U130G C131U U135G U148A, the “polymerase ribozyme fitness (log ratio)” value was ≤ -4.2.
In the case of U7G A21G U78G G80C G92U U127G G136C, the “polymerase ribozyme fitness (log ratio)” value is reported as ≤ -4.2.
With U7G A22C A28U A39G C87A G126U C129U the “polymerase ribozyme fitness (log ratio)” value was ≤ -4.2.
For U7G A22C C72G U90C, the “polymerase ribozyme fitness (log ratio)” value was ≤ -4.2.
With U7G A22G C32U G59C U77G C114U U145A the “polymerase ribozyme fitness (log ratio)” value was ≤ -4.2.
For U7G A23C A24U C54G, the “polymerase ribozyme fitness (log ratio)” value was ≤ -4.2.
For U7G A23G C32A A115G, the “polymerase ribozyme fitness (log ratio)” value was ≤ -4.2.
For U7G A24G G94U G143U, the “polymerase ribozyme fitness (log ratio)” value was ≤ -4.2.
For U7G A26C G92U A97U, the “polymerase ribozyme fitness (log ratio)” value was ≤ -4.2.
In the case of U7G A26G A28C A52G G88C A107U A122G G143U A147U U151C, the “polymerase ribozyme fitness (log ratio)” value is reported as ≤ -4.2.
In the case of U7G A26G U31G G74A, the “polymerase ribozyme fitness (log ratio)” value is reported as ≤ -4.2.
For U7G A26U U56G G59C G83A C96U A138C, the “polymerase ribozyme fitness (log ratio)” value was ≤ -4.2.
In the case of U7G A28G U31C A147U, the “polymerase ribozyme fitness (log ratio)” value is reported as ≤ -4.2.
For U7G A28U A41U C57A C87G C131G U148C, the “polymerase ribozyme fitness (log ratio)” value was ≤ -4.2.
With U7G A29U C54U U56A C79U G94U the “polymerase ribozyme fitness (log ratio)” value was ≤ -4.2.
For U7G A29U U53A C75U G81U C95U A98U C105G A106U, the “polymerase ribozyme fitness (log ratio)” value was ≤ -4.2.
In the case of U7G A30C C32G C51U U144A, the “polymerase ribozyme fitness (log ratio)” value is reported as ≤ -4.2.
In the case of U7G A37G C38U G59U A60U G94U C108U, the “polymerase ribozyme fitness (log ratio)” value is reported as ≤ -4.2.
For U7G A39C G74A C93U C103A, the “polymerase ribozyme fitness (log ratio)” value was ≤ -4.2.
In the case of U7G A40C G58A G70A C76A C132U, the “polymerase ribozyme fitness (log ratio)” value is reported as ≤ -4.2.
With U7G A40G A52C G65U A73G U82A C93G U134A U148G the “polymerase ribozyme fitness (log ratio)” value was ≤ -4.2.
For U7G A40U A41U U90G G143A, the “polymerase ribozyme fitness (log ratio)” value was ≤ -4.2.
With U7G A41C G46U G100C A115U U135C G140C A147C the “polymerase ribozyme fitness (log ratio)” value was ≤ -4.2.
For U7G A41U C43U U82G G92U U146A, the “polymerase ribozyme fitness (log ratio)” value was ≤ -4.2.
For U7G A47C A49U G86U C99U, the “polymerase ribozyme fitness (log ratio)” value was ≤ -4.2.
In the case of U7G A49C, the “polymerase ribozyme fitness (log ratio)” value is reported as ≤ -4.2.
In the case of U7G A49C G59C C85A C105G, the “polymerase ribozyme fitness (log ratio)” value is reported as ≤ -4.2.
With U7G A60G the “polymerase ribozyme fitness (log ratio)” value was -2.7.
In the case of U7G A64C A122G, the “polymerase ribozyme fitness (log ratio)” value is reported as ≤ -4.2.
For U7G A91U U104G C125A G141C U144A, the “polymerase ribozyme fitness (log ratio)” value was ≤ -4.2.
With U7G C8G A73G A120C U127C the “polymerase ribozyme fitness (log ratio)” value was ≤ -4.2.
For U7G C8G U45G A66U C85U A138U, the “polymerase ribozyme fitness (log ratio)” value was ≤ -4.2.
For U7G C8U U56C G59A A64C G65C G71A C95U C99A G100C, the “polymerase ribozyme fitness (log ratio)” value was ≤ -4.2.
In the case of U7G C10A A23U A30U U90A G92U A115C C116U U135A G136C, the “polymerase ribozyme fitness (log ratio)” value is reported as ≤ -4.2.
